# Results published in PubChem BioAssay AID463173 (ICCB-Longwood Screening Facility, Harvard Medical School, 2010).
# The whole screen tested about 52,000 compounds, of which about 4,300 (8.3%) were called active. Cut-off read from the data, not from the text of the source: active = survival mostly below about 52% (no sharp cut-off); inactive = mostly above about 56%. The list shows a part of the results.
# Tested on: DeltatarO mutant
# Assay: growth inhibition of S. aureus wild type versus tarO mutant, primary screen, teichoic acid synthesis inhibitors, RN4220, OD600 (AID 463173)
# Settings: OD600, 18 h, hits give low values, screened at 18.75 µg/mL (by protocol)
row,SMILES,survival
1,CCOC(=O)c1c(C)[nH]c(C)c1S(=O)(=O)N(C)CC(=O)Nc1ccc(C)c(F)c1,inactive: 75%
2,CCc1ccccc1NC(=O)c1ccc2c(c1)c(C)c(C)n2Cc1ccccc1,inactive: 89%
3,Cc1cc(C)c(NC(=O)C2CCCN(C(=O)c3cnn(-c4ccccc4)c3-n3cccc3)C2)c(C)c1 (stereo not given),inactive: 59%
4,COC(=O)c1cc2sccc2n1Cc1nc(-c2ccc(C)cc2)oc1C,active: 28%
5,CN(C(=O)CSc1nc2ccccc2n1CC(=O)N(C)C1CCCCC1)c1ccc(F)cc1,inactive: 108%
6,COc1ccccc1-c1c(C)nn2c(N3CCN(c4ccc(F)cc4)CC3)cc(C)nc12,inactive: 81%
7,Clc1ccc(C2NCCS2)cc1 (stereo not given),inactive: 101%
8,CC(C)n1c(=O)c2oc3ccccc3c2n(CC(=O)Nc2ccccc2Cl)c1=O,inactive: 60%
9,COC(=O)c1c(Oc2ccc(Br)cc2)nnc(-c2ccccc2)c1-c1ccccc1,inactive: 85%
10,Cc1c(Cl)cccc1NC(=O)Cn1c(=O)n(Cc2ccco2)c(=O)c2oc3ccccc3c21,inactive: 82%
11,O=C1CC(c2ccc(Br)cc2)c2c(ccc3ccccc23)N1 (stereo not given),active: 32%
12,CCc1nc2nc(C)cc(Nc3ccc(F)c(Cl)c3)n2n1,inactive: 65%
13,Cc1ccc(CN2CCC(CNC(=O)Nc3cccc(C)c3C)C2)cc1 (stereo not given),inactive: 112%
14,COc1cc(OC)c2c(C)c(CC(=O)N3CCCCC3)c(=O)oc2c1,inactive: 47%
15,CC(=O)N1CCCc2cc(S(=O)(=O)N3CCCC(C(=O)Nc4ccc(C)c(F)c4)C3)ccc21 (stereo not given),inactive: 77%
16,Cc1cccc(C(=O)Nc2ccccc2OCc2cc(=O)n3cc(C)ccc3n2)c1,inactive: 60%
17,COc1ccc(OC(=O)c2ccc3snnc3c2)cc1,inactive: 86%
18,COc1cc(OC)cc(C(=O)Nc2cccc(-c3cn4ccsc4n3)c2)c1,active: 6%
19,COc1ccc(OC)c(CNc2ncnc3onc(C)c23)c1,inactive: 129%
20,CCOC(=O)c1cc2c(=O)n3ccccc3nc2n(C(C)C)c1=NC(=O)c1c(-c2c(F)cccc2Cl)noc1C,inactive: 151%
21,CCc1cccc(C)c1NC(=O)c1cc(S(=O)(=O)N2CCN(c3ccccc3)CC2)ccc1F,inactive: 90%
22,Cc1cccc(CCNC(=O)CCc2c(C)nc3c(c(C)nn3-c3ccccc3)c2C)c1,active: 48%
23,CN(C)c1ccc(C(=O)NCc2ccc3c(c2)CCN3C(=O)c2ccc(Cl)cc2)cc1,inactive: 102%

row,SMILES,survival
1,COc1ccc(Cl)cc1NC(=O)CCn1nc(C)cc1C,inactive: 67%
2,CC1=CCC2C(=O)N(C3CCCCC3)C(=O)C2C1 (stereo not given),inactive: 79%
3,COc1ccc(CCNC(=O)c2cc(=O)[nH]c3ccc(S(=O)(=O)N4CCCCC4)cc23)cc1OC,inactive: 76%
4,CCOc1ccc(NC(=O)C2CCC(CNS(=O)(=O)c3ccc4c(c3)CCCC(=O)N4)CC2)cc1 (stereo not given),active: 47%
5,CC(=O)Nc1c(C)nn(-c2ccccc2)c1N1CCC(C(=O)NCc2cccc(F)c2)CC1,active: 6%
6,Cc1ccc(N(CC(=O)N2CCN(c3cccc(C)c3C)CC2)S(=O)(=O)c2c(C)nn(C)c2C)cc1,inactive: 75%
7,CCN(c1cc(C)cc(C)c1)S(=O)(=O)c1nnc(NC(=O)c2ccccc2C)s1,inactive: 49%
8,CCOc1ccc(NC(=O)CSc2cn(CC(=O)N3CCOCC3)c3ccccc23)cc1,inactive: 95%
9,CC(C)OCCCn1c(SCc2ccccc2Cl)nc2c(sc3ccccc32)c1=O,inactive: 134%
10,CCC(Cc1ccccc1)NC(=O)c1cccc(Nc2nc3ccccc3nc2-n2nc(C)cc2C)c1 (stereo not given),inactive: 63%
11,N#Cc1cc2cc3c(cc2nc1N1CCCN(C(=O)c2ccccc2)CC1)OCO3,inactive: 89%
12,CCC1CN(C(=O)N2CCC(C(=O)NCCC3=CCCCC3)CC2)c2ccccc2O1 (stereo not given),inactive: 65%
13,CCC1CCCCN1C(=O)Cn1c(=O)n(-c2ccc(Cl)c(Cl)c2)c(=O)c2c(C)c(C(=O)N(C)C)sc21 (stereo not given),inactive: 92%
14,O=S(=O)(Nc1cccc(-c2ccc(N3CCOCC3)nn2)c1)c1ccc(F)c(C(F)(F)F)c1,inactive: 80%
15,O=c1c2ccccc2[nH]c(=S)n1C1CCCC1,inactive: 88%
16,COc1ccc(-c2cc(C(F)(F)F)nc(SCC(=O)N(C)Cc3ccccc3)n2)cc1,inactive: 44%
17,CCOc1ccc(C(C(=O)NC2CCCC2)N(Cc2ccco2)C(=O)Cn2nnc3ccccc32)cc1OC (stereo not given),inactive: 110%
18,Cn1nc(C(=O)NCc2ccccc2Cl)c2c1-c1ccccc1SC2,inactive: 81%
19,CCN(CC)c1nn2c(=O)c(C(=O)NCc3ccccc3Br)cnc2s1,inactive: 91%
20,CCCC(c1nnnn1Cc1ccc(OC)cc1)N1CCC(C(N)=O)CC1 (stereo not given),inactive: 98%
21,CC1(C)CC(=O)C(C=NCc2ccccc2)=C(O)C1,inactive: 95%
22,O=C(NCCc1ccc(Cl)cc1)c1cc2c(s1)-c1ccccc1OC2,inactive: 61%
23,CCOc1ccc(NC(=O)N2CCN(C(=O)c3nsc4ccccc34)CC2)cc1,inactive: 94%

row,SMILES,survival
1,COc1cc(OC)c2c(C)c(CC(=O)NCc3ccccc3OC)c(=O)oc2c1,inactive: 54%
2,Cc1cccc(NC(=O)c2ccc(Cn3nc(N4CCN(c5ccccc5)CC4)ccc3=O)o2)c1C,inactive: 77%
3,Cc1cc(=O)n(Cc2ccc(Br)cc2F)c2c1c(C)nn2-c1ccccc1,inactive: 101%
4,Cc1ccc(NC(=O)Cn2c(=O)n(CCCCC(=O)NCCc3ccccc3)c(=O)c3ccccc32)cc1,inactive: 83%
5,O=C(CCNS(=O)(=O)c1ccc2c(c1)CCCC(=O)N2)NCc1ccc(Cl)cc1,inactive: 96%
6,Cc1cc(Cl)ccc1OCCSc1nnc(-c2cccs2)o1,active: 37%
7,COc1ccc(CN(CCN(C)C)Cc2ccccc2)c(OC)c1,inactive: 109%
8,CCc1nccn1S(=O)(=O)c1cc(Br)ccc1Br,active: 43%
9,COc1ccc(C)cc1NC(=O)CN(C)S(=O)(=O)c1ccc2[nH]c(=O)oc2c1,inactive: 78%
10,CCc1ccc(-c2[nH]nc3nc(-c4cc(OC)ccc4OC)cc(C(=O)O)c23)cc1,inactive: 97%
11,O=C(O)C1C2C=CC(C2)C1C(=O)NCCN1CCOCC1 (stereo not given),inactive: 82%
12,O=C(COc1ccccc1Cl)Nc1ccc2nc(SCC(=O)N3CCOCC3)sc2c1,inactive: 76%
13,O=S(=O)(c1ccc2nc(Nc3ccc(Br)cc3F)ccc2c1)N1CCCCC1,inactive: 70%
14,CCSc1nc2sc3c(c2c(=O)n1-c1ccc(C)c(Cl)c1)CCN(C(C)=O)C3,inactive: 61%
15,N#Cc1ccc(C(=O)Nc2ccccc2-c2nc3ccccc3s2)c(F)c1,inactive: 78%
16,COc1ccc(OCc2ccc(-c3nc(C#N)c(NCc4ccccc4)o3)o2)cc1,inactive: 78%
17,CCOC(=O)Cc1ccc(NC(=O)n2ncc3cc(Cl)ccc32)cc1,inactive: 83%
18,CNS(=O)(=O)c1ccc(NC(=O)c2cnn3c(C(F)F)cc(-c4ccccc4)nc23)cc1,inactive: 66%
19,CCOC(=O)c1cnc2c(Cl)c(Cl)ccc2c1NCCN1CCOCC1,active: 42%
20,Cc1c(-c2cccc(NC(=O)c3ccc(F)c(F)c3)c2)nc2ncccn12,inactive: 84%
21,CCc1ccccc1NS(=O)(=O)c1ccc2oc(=O)c3ncn(C)c3c2c1,inactive: 122%
22,COc1ccc(OC)c(NC(=O)CSc2nnc(NC(=O)C3CC3)s2)c1,inactive: 107%
23,COCCOC(=O)c1c(C)oc2c1cc(NS(=O)(=O)c1ccc(Cl)c(C)c1)c1ccccc12,active: 44%

row,SMILES,survival
1,O=C(CN(Cc1ccco1)C(=O)c1nsc(Cl)c1Cl)NC1CCCCC1,inactive: 106%
2,COc1ccc(Nc2ncnc3c2c(-c2ccccc2)cn3-c2ccc(C)c(Cl)c2)cc1OC,inactive: 99%
3,CCc1ccccc1NC(=O)CSc1ncccc1C(=O)O,inactive: 73%
4,COc1cccc(CNC(=O)CCc2c(C)nc3c(c2C)c(=O)n(C)c(=O)n3C)c1,inactive: 104%
5,CCOc1ccc(C2C(C(=O)OC)=C(C)NC3=C2C(=O)c2ccccc23)cc1OC (stereo not given),inactive: 48%
6,CCc1ccc(NC(=O)C2CCCN(c3nn4cc(-c5ccc(OC)cc5)nc4s3)C2)cc1 (stereo not given),inactive: 99%
7,O=C(Nc1ccc(F)cc1Cl)C1CCN(c2ncnc3c2nc2n3CCCCC2)CC1,inactive: 91%
8,S=c1[nH]c2c(s1)sc1ccccc12,inactive: 81%
9,CN(C1CCCCC1)S(=O)(=O)c1ccc2c(c1)c(=O)c(C(=O)NCc1ccccc1Cl)cn2C,inactive: 73%
10,O=C(NCC(c1ccc2c(c1)OCO2)N1CCN(c2ccc(F)cc2)CC1)c1cccc([N+](=O)[O-])c1 (stereo not given),inactive: 74%
11,COC(=O)c1c(NC(=O)COc2c(C)cccc2C)sc2c1CCCC2,active: 2%
12,CC1CCN(S(=O)(=O)c2ccc(C(=O)Nc3nc4ccc(F)cc4s3)cc2)CC1,active: 46%
13,CCOc1ccccc1NC(=O)c1cc2cc(C)ccc2n1C,inactive: 62%
14,CCC1C=CCC2C(=O)N(CC(=O)NCCC3=CCCCC3)C(=O)C12 (stereo not given),inactive: 73%
15,Cc1ccc(C(=O)CSc2ncn(-c3ccccc3)n2)cc1,inactive: 84%
16,Cc1cccc(NC(=O)CSC2=Nc3ccccc3C3=NC(CCC(=O)NCc4ccc(F)cc4)C(=O)N23)c1 (stereo not given),inactive: 112%
17,CC(=O)c1ccc(NS(=O)(=O)c2cnc(N)nc2)cc1,active: 6%
18,CCOc1ccccc1NC(=O)Cc1csc(COc2cccc(C)c2)n1,inactive: 85%
19,O=C(NCCc1ccc(Cl)cc1)c1ccc(Cn2c(=O)[nH]c3ccccc3c2=O)cc1,inactive: 105%
20,CC(=O)c1cccc(Nc2ncnc3c2cnn3C)c1,inactive: 67%
21,Cc1ccc(-n2c3c(c(=O)[nH]c2=O)C(NS(=O)(=O)c2ccc(C)cc2)(C(F)(F)F)C(=O)N3)cc1 (stereo not given),inactive: 73%
